Each structure is given as a SMILES string. Hit rate of the full screen: of about 150,000 compounds, about 540 (0.36%) showed an effect of 50% or more. Some of the results follow.

The experiment concerns Plasmodium falciparum. The experiment can be described thus: Primary screen in NF54 nanoGlo assay, in single point, at 2uM, 72h; a lower Z score goes with more inhibition. It counts as functional, Erythrocyte. The note with it: timepoint 72 hour.
For the molecule `C[C@H](NC(=O)c1c[nH]nc1-c1ccccc1)c1ccccn1`, the % Inhibition – broadly, the relative decrease from the control value, in per cent – was determined as 2% and the Z score is given as -0.27.
The matching figures for `Cc1nn(C)cc1C(=O)N1CCC[C@@]2(CCC(=O)N(Cc3cccnc3)C2)C1`: 12% and -1.11.
The like results for `C=C(C)CNC(N)=NCc1cc(F)ccc1Br` were, in that order, 2% and -0.22.
The matching figures for `Cc1cc(S(=O)(=O)N(CCO)CCO)sc1C`: -14% and 1.38.
As for `Cc1nn(C)c(C)c1CC(=O)NC1(c2ccccc2F)COC1`, the “% Inhibition” value was -17% and the Z score is 1.68.
The like results for `Cn1nccc1C1CC2CCC(C1)N2S(=O)(=O)C1CC1` (configuration not stated) were, in that order, -3% and 0.29.
As for `CC(C)C1(CNC(=O)C[C@H](c2nccn2C)C(F)(F)F)CC1`, the “% Inhibition” value is listed as 3% and the Z score is listed as -0.37.
For `CN(Cc1ccc2c(c1)OCCO2)c1ncccc1C(N)=O`, the “% Inhibition” value is -2% and the Z score turned out to be 0.35.
The like results for `COc1ccc(-c2cnc(N)nc2)c(-n2nc(C)cc2C)c1` were, in that order, -2% and 0.2.
The matching figures for `CN(Cc1cc(C#N)n(C)c1)C[C@H]1CCCO1`: 0% and 0.06.
Consider `CCCCN(C)C(=O)c1cc(NS(=O)(=O)c2ccc(F)cc2)ccc1N1CCNCC1`, for which the “% Inhibition” value is listed as -17% and the Z score is listed as 2.01.
The like results for `CN(c1ccccc1)c1cc(C(=O)O)ncn1` were, in that order, -1% and 0.13.
The like results for `COc1ccc(CCNC(=O)Cc2ccc(N(Cc3ccccc3C)C(=O)c3cccs3)cc2)cc1` were, in that order, -2% and 0.29.
The like results for `CNC(=O)[C@@H]1CCCCN1Cc1cc2cc(F)ccc2o1` were, in that order, 3% and -0.43.
For the molecule `FC(F)(F)c1cccc(Nc2c(-c3ccc(-c4cccc(C(F)(F)F)c4)o3)nc3ccc(Cl)cn23)c1`, the “% Inhibition” value is recorded as -3% and the Z score was determined as 0.41.
The matching figures for `CC(C)c1nc(CN2C[C@H]3CN(C4CCCCC4)C[C@@]3(C(=O)O)C2)co1`: -5% and 0.7.
The like results for `Cc1ccc(CCC(=O)N2CC(N3CCc4ccccc4C3)C2)cc1F` were, in that order, 2% and -0.32.
The like results for `Cn1cnc2cc(-c3noc(CNS(=O)(=O)c4ccccc4)n3)ccc21` were, in that order, 2% and -0.28.
For the molecule `C[C@H]1CCCCN1CCN(C)Cc1cncnc1`, the “% Inhibition” value was -3% and the Z score came out at 0.51.
The like results for `O=C1CCC(C(=O)NC(c2ccc(Cl)cc2)c2ccsc2)CN1` (configuration not stated) were, in that order, -5% and 0.47.
The matching figures for `O=C(NCc1ccccn1)c1ccc(N2CCCN(Cc3ccccc3)C2=O)cc1`: 3% and -0.49.
The like results for `Cc1nc(-c2cncc(Cl)c2)n(CC(C)(C)O)n1` were, in that order, -1% and 0.12.
Consider `CS(=O)(=O)CCN1C(=O)[C@@H](c2ccccc2)N(Cc2ccccc2)C1=O`, for which the “% Inhibition” value is -11% and the Z score was found to be 1.75.
The matching figures for `CC1CCN(S(=O)(=O)NC2CCCC2)CC1`: 28% and -3.19.
The like results for `c1ccc(CNc2nc(C3CCCC3)nc3c2CCOCC3)cc1` were, in that order, -10% and 0.94.
The matching figures for `CCN1CCN(c2nc(S(=O)(=O)c3ccc(C)cc3)c(Cl)s2)CC1`: -3% and 0.42.
Turning to `CCc1ccc(S(=O)(=O)N2CC(=O)N3CCc4ccccc4[C@@H]3C2)cc1`, the “% Inhibition” value is listed as -6% and the Z score amounted to 0.87.
The matching figures for `CC1(c2cc(F)ccc2F)NC(=O)N(CC2CCCCO2)C1=O` (configuration not stated): -11% and 1.04.
Take `N#C[C@@H](C(=O)c1cnn2ccccc12)c1nc(-c2ccccc2)cs1`: the “% Inhibition” value worked out at 13% and the Z score was -1.12.
On to `O=C(NC[C@H]1CCCO1)c1cn2c3c(cc(Br)cc3c1=O)CC2`, for which the “% Inhibition” value is reported as 17% and the Z score is reported as -2.13.
The matching figures for `C[C@H](O)CCNC(=O)Nc1cc(C#N)c(Br)cn1`: -3% and 0.41.
The matching figures for `Cc1nc2ccccc2c(N2CC[C@H](C(=O)N3CCCC3)C2)c1C`: -10% and 1.88.
The like results for `COCCn1cncc1CNC(=O)N1CCCCC[C@H]1c1ccco1` were, in that order, -4% and 0.56.
Take `Cc1c(NC(=O)c2ccccc2-c2ccccc2)ccc(N2CCCC2=O)c1NC(=O)c1ccccc1-c1ccccc1`: the “% Inhibition” value worked out at 37% and the Z score was -4.97.
The matching figures for `O=C1NCCCCCCN(C(=O)Nc2ccccc2)[C@H]2CCCC[C@@H]12`: -7% and 0.91.
The matching figures for `Cc1cc(=O)c(-c2nc(-c3cccnn3)no2)c[nH]1`: -2% and 0.47.
The matching figures for `CC(CC(O)c1ccco1)NS(=O)(=O)N(C)C1CCOCC1` (configuration not stated): -8% and 0.93.
On to `CC1(C)CN(C(=O)c2cc3ncccc3o2)[C@H]2COC[C@@H]2O1`, for which the “% Inhibition” value is -2% and the Z score is listed as 0.34.
The like results for `C[C@H]1C(=O)NCCN1C(=O)c1ccc(Cc2ccccc2)cc1` were, in that order, -8% and 1.32.
With `N#CC1CN(c2ccncc2Cl)CC12C(=O)Nc1ccccc12` (configuration not stated), the “% Inhibition” value was 0% and the Z score was determined as 0.01.
Regarding `O=C(NCCn1ccn2nccc12)C1CCCC1`, the “% Inhibition” value is given as -10% and the Z score was 1.27.
The matching figures for `COc1cccn(CC(=O)N(C)Cc2noc(C3CCC3)n2)c1=O`: -6% and 1.11.
The matching figures for `CC(C)=CCN1CC2(CCN(C(=O)CCc3ccncc3)CC2)CC1=O`: -11% and 1.3.
The matching figures for `O=C(Cc1cccnc1)N1C2C=CCC1CC2` (configuration not stated): -9% and 1.14.
Regarding `Cc1cccc(N2CCN(C(=O)CN3C(=O)CCn4nc(-c5cn(C)c6ccccc56)cc43)CC2)c1C`, the “% Inhibition” value was -3% and the Z score was determined as 0.52.
The like results for `Cc1c(Cl)c(C(F)F)nn1CC(=O)N1CCN(C(=O)c2ccco2)CC1` were, in that order, 9% and -1.06.
Regarding `O=C(Nc1ccc(O)c(-c2nc3cnccc3o2)c1)c1ccc(-c2ccc(Cl)c(Cl)c2)o1`, the “% Inhibition” value is 1% and the Z score is on record as -0.19.
The matching figures for `CN(CCCCN1CCOCC1)c1cc(C(N)=O)ccn1`: 1% and -0.17.
The matching figures for `NC(=O)c1nnsc1N1CCCCC1`: -4% and 0.64.
The matching figures for `COc1ccc(-c2ccc(=O)n(CN3CCn4nc(C(F)(F)F)nc4C3)n2)cc1OC`: -2% and 0.38.
Turning to `CN(Cc1nn(-c2ccc(F)cc2)c2c1CCC2)C[C@H]1CCCO1`, the “% Inhibition” value is -5% and the Z score stood at 0.95.
The like results for `CC[C@H](OC1CCCCC1)C(=O)Nc1cnccc1CO` were, in that order, -5% and 0.67.
Consider `Nc1cc(N2CCCN(CCCc3ccccc3)CC2)ncn1`, for which the “% Inhibition” value is on record as -3% and the Z score was determined as 0.44.
The matching figures for `Cc1c(C(=O)O)cccc1S(=O)(=O)N1C[C@H]2CCC(=O)c3cccc1c32`: 8% and -1.4.
On to `COc1ccc(C)cc1NC(=O)N1Cc2c(C)nn(-c3ccccc3)c2-n2cccc2[C@H]1c1ccc(Cl)cc1`, for which the “% Inhibition” value was -4% and the Z score was found to be 0.72.
Turning to `CN(C)c1nc(CNC(=O)C2CCN(Cc3ccco3)CC2)cs1`, the “% Inhibition” value is reported as -9% and the Z score is 1.07.
The matching figures for `CC1C(=O)NCCN1C(=O)C1CCCC(C(=O)O)C1` (configuration not stated): 5% and -0.7.
Turning to `CC1COCCN1c1ncc(Cl)c(N2CCOCC2C)n1` (configuration not stated), the “% Inhibition” value came to 3% and the Z score is -0.23.
Take `CCOc1cc(CNc2cccc3nc(C(F)(F)F)[nH]c23)ccc1OC`: the “% Inhibition” value is given as 14% and the Z score is given as -1.77.
The like results for `COc1cccc(Cn2c(=O)c3c(C(=O)N4CCCCC4)cc(C)nc3n(-c3ccccc3)c2=O)c1` were, in that order, 0% and 0.
The matching figures for `C[C@@H](CN1CCCCC1)c1nc(C2(c3ccccc3)CC2)nn1CCO`: -3% and 0.41.
On to `COc1cc(N[C@H]2CCCN(Cc3nnc(C)n3C)C2)cc(OC)c1`, for which the “% Inhibition” value came out at 27% and the Z score is on record as -3.69.
With `CC(C)=CC1C(C(=O)N(C)C2CCN(CC3CCOC3)CC2)C1(C)C` (configuration not stated), the “% Inhibition” value is recorded as -17% and the Z score amounted to 1.78.
The like results for `Cc1cc2ccccc2n1CC(=O)N1CCC[C@H]2C(=O)N(C)C[C@H]21` were, in that order, 6% and -0.77.
The like results for `CN(C(=O)c1cccnc1)[C@H]1CCOc2ccc(Br)cc21` were, in that order, -8% and 1.08.
As for `Fc1ccccc1N1CCN(Cc2ccccn2)CC1`, the “% Inhibition” value was -19% and the Z score was determined as 2.37.
The matching figures for `Cc1cc(C(=O)Nc2nc3ccccc3n2C2CCCC2)nn1C`: -6% and 1.25.
The like results for `Cc1ccccc1OC[C@H](O)C(=O)NCCc1ncc[nH]1` were, in that order, 3% and -0.53.
The like results for `COc1ccncc1NC(=O)[C@@H]1CC(c2cc(F)ccc2F)=NO1` were, in that order, -16% and 1.48.
With `CCOC(=O)NC[C@H](O)c1ccc2c(c1)CCO2`, the “% Inhibition” value came out at 2% and the Z score is recorded as -0.37.
The like results for `COc1ccc(F)cc1C(=O)N1C[C@@H]2CC[C@H]1CN(c1ncccn1)C2` were, in that order, 3% and -0.59.
The like results for `CCc1nc(NCCCn2nc(C)nc2C)ncc1C` were, in that order, -13% and 1.25.
As to `Cc1ccc(NCC(=O)NC[C@H]2CCS(=O)(=O)C2)cc1Cl`, the “% Inhibition” value is on record as -3% and the Z score was found to be 0.34.
The like results for `Cc1cc(C)c(CNC(=O)c2csc(CC(C)C)n2)c(=O)[nH]1` were, in that order, -9% and 0.84.
The like results for `Cc1noc2nc(CCC(=O)NCc3cccnc3)nc(N3CC(C)CC(C)C3)c12` (configuration not stated) were, in that order, -2% and 0.28.
As to `CNC(=O)CN1c2ccccc2C(=O)N(C)[C@@H]1c1ccc2ccccc2c1`, the “% Inhibition” value is on record as -9% and the Z score amounted to 1.42.
The matching figures for `CN1CC2CCC(C1)N2C(=O)Nc1ccccc1Cl`: -2% and 0.17.
The like results for `O=C1CN(C[C@H]2CCCOC2)CCN1Cc1ccccc1F` were, in that order, -18% and 2.26.
The like results for `Cc1cccc(C)c1CN(C)C(=O)N[C@@H](C)c1n[nH]c(=O)n1C` were, in that order, 15% and -1.85.
For the molecule `CCOc1ccccc1OC/C=C/CNC`, the “% Inhibition” value is recorded as -4% and the Z score amounted to 0.39.
The like results for `O=C(NCc1cccnc1)c1nnn2c1c(=O)[nH]c1cc(F)ccc12` were, in that order, 2% and -0.42.
The matching figures for `O=C(O)c1ccc2c(c1)C[C@@H](c1ccccc1)NC2=O`: -20% and 2.62.
In the case of `COC(C(=O)N1CCOCC1c1nc2ccccc2s1)C1CC1` (configuration not stated), the “% Inhibition” value is reported as -4% and the Z score was determined as 0.53.
The matching figures for `N#Cc1cccc(C(=O)N2CCC[C@H]2c2nc(CCOCC3CCCC3)no2)c1`: 0% and -0.03.
The matching figures for `COCCN1CCc2c(C)nc3c(-c4ccc(OC)c(OC)c4)cnn3c21`: 44% and -5.65.
The matching figures for `N#Cc1cnc(N[C@H]2CC[C@H](Nc3cnc(C#N)cn3)CC2)cn1`: -17% and 3.22.

Values taken from ChEMBL document CHEMBL4888484, “Replenishing the malaria drug discovery pipeline: Screening and hit evaluation of the MMV Hit Generation Library 1 (HGL1) against asexual blood stage Plasmodium falciparum ,using a nano luciferase reporter read-out” (2022).
